Experimental data: PubChem BioAssay AID651820 (National Center for Advancing Translational Sciences (NCATS), 2012)
Among all 340,000 compounds or so, about 12,000 (3.5%) were called active. This list was built around the results that the source calls inconclusive (neither active nor inactive); the mix of calls is not that of the screen. Calls follow the shape of the dose curve; as a rule, active = well fitted inhibition curve with a large enough effect; inconclusive = small, poorly fitted or top-dose-only effect, or another doubt; inactive = no such curve, though single readings can be large or run the other way. No potency is given beside an inconclusive call; the fits are too rough. The source holds several records for some structures; these can differ, active in one and inactive in another.

Experiment: qHTS Assay for Inhibitors of Hepatitis C Virus (HCV)
Details: Huh7.5.1 HCVcc-Cre (HCVcc is cell-culture hepatitis C virus) infection, luciferase reporter, 44 h; activity change, negative = inhibition: at 41.8 µM (top of the series)
Procedure, shortened: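 A cell-based infection assay in which seeded cells (1,000 per well) receive test compound after 4 h, are inoculated with HCVcc-Cre at approximately 0.5 moi, and are incubated 44 h before luminescence detection.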
% is scaled to controls: 0 for no effect and ±100 for the full control effect; potency is read from the fitted curve at half-maximal effect; tags tell the direction and shape of the fitted curve.

Row | Compound | activity change, negative = inhibition | Potency
1 | Cc1ccc(S(=O)(=O)N2CCN(C(=O)COC(=O)c3cnc(C)cn3)CC2)c(C)c1 | inactive: 11% [at 8.37 µM] | 
2 | CCOCc1c(C(=O)N2CCN(Cc3ccc(Br)s3)CC2)oc2ccccc12 |  | inconclusive [inhibitor, single point]
3 | COc1ccccc1CNC(=O)COC(=O)c1nccnc1N | inactive: 9.88% | 
4 | COc1ccc(C(=O)NC(C)c2ccccc2)cc1Br (stereo not given) | inactive: -10.7% | 
5 | O=C1C=C(NCCc2cc(Br)c(O)c(Br)c2)C(=O)c2ncccc21 |  | inconclusive [inhibitor, single point]
6 | C=CCc1ccc(OCCCCCN2CCOCC2)c(OC)c1 |  | inconclusive [inhibitor, single point]
7 | O=C(OCC(=O)N1CCC(Cc2ccccc2)CC1)c1ccccc1NCCO |  | inconclusive [inhibitor, partial curve]
8 | O=C(c1nn(Cc2ccccc2)c(=O)c2ccccc12)N1CCN(C/C=C/c2ccccc2)CC1 |  | inconclusive [inhibitor, single point]
9 | CCCC1=Nc2cc(C(=O)NCCCOCC)ccc2Sc2ccccc21 |  | inconclusive [inhibitor, full curve]
10 | COc1ccccc1CNS(=O)(=O)c1ccc(-c2cc(C)no2)cc1 |  | inconclusive [inhibitor, single point]
11 | Cc1ccc(C)c(S(=O)(=O)N2CCCC2CNC(=O)C(=O)NCc2ccccc2)c1 (stereo not given) |  | inconclusive [inhibitor, single point]
12 | Cc1cc(NC(=O)c2cc(-c3ccco3)on2)nn1Cc1ccc(Cl)cc1 |  | inconclusive [inhibitor, full curve]
13 | CCCOc1ccc(C(=O)NCCc2ccccc2)cc1 |  | inconclusive [inhibitor, single point]
14 | Cc1ccc(-n2cnc3c(=O)[nH]cnc32)cc1 |  | inconclusive [inhibitor, single point]
15 | COc1cc2c(cc1OC)CN(C(=O)c1ccc(S(=O)(=O)N3CCCCC3)cc1)CC2 |  | inconclusive [inhibitor, single point]
16 | CCOC(=O)c1c(C=O)c2ccccc2n1CC |  | inconclusive [inhibitor, single point]
17 | O=C(Nc1nc(-c2cc(Cl)sc2Cl)cs1)c1cccs1 |  | inconclusive [inhibitor, full curve, poor fit]
18 | N#Cc1c(NC(=O)c2ccc(Cn3cc(Br)cn3)o2)sc2c1CCCCC2 |  | inconclusive [inhibitor, partial curve, poor fit]
19 | CCn1c(CNc2ccc(C)cc2C)nnc1SCC(=O)N1CCCc2ccccc21 |  | inconclusive [inhibitor, single point]
20 | COc1ccccc1CC(=O)N1CCN(c2ccccn2)CC1 | inactive: -5.55% | 
21 | Cc1nonc1OCCCNc1ccc([N+](=O)[O-])cc1Cl | inactive: 10.2% | 
22 | CCOC(=O)c1c(C)nn(Cc2cccc(Cl)c2)c1N |  | inconclusive [inhibitor, partial curve]
23 | Cc1cccc(/C=N/NC(=O)c2ccc(NC(=O)c3ccc(F)cc3)cc2)n1 |  | inconclusive [inhibitor, single point]
24 | COc1cc(/C=N/OCC(=O)NC23CC4CC(CC(C4)C2)C3)ccc1OCc1ccccc1 |  | inconclusive [inhibitor, single point]
25 | COc1ccccc1C(=O)Nc1ccc(C(=O)/C=C/c2cccs2)cc1 |  | inconclusive [inhibitor, partial curve, poor fit]

Row | Compound | activity change, negative = inhibition | Potency
26 | Cc1ccc(NC(=O)C2CCCN(c3ncnc4c3nc3n4CCCCC3)C2)cc1Cl (stereo not given) |  | inconclusive [inhibitor, partial curve]
27 | Cc1ccnc(NC(c2cccnc2)c2ccc3cccnc3c2O)c1 (stereo not given) |  | active: 3.98 µM
28 | O=C(CN1C(=O)COc2ccccc21)NCCN1CCC(Cc2ccccc2)CC1 |  | active: 22.4 µM
29 | COc1ccc(S(=O)(=O)N2CCCCCC2)cc1C(=O)OCC(=O)NC1CCS(=O)(=O)C1 (stereo not given) | inactive: 6.59% | 
30 | Brc1ccc(/C=N/Nc2nc3ccccc3o2)cc1 | inactive: -15.4% | 
31 | COc1ccc(OC)c(-c2csc(NC(=O)Cc3ccc(OC)c(OC)c3)n2)c1 |  | inconclusive [inhibitor, single point]
32 | CCN(CC)S(=O)(=O)c1cccc(-c2nnc(SCCOc3ccccc3C)o2)c1 |  | active: 12.6 µM
33 | Cc1nnc(NC(=O)COc2ccccc2)s1 | inactive: 10.8% | 
34 | COc1cc(/C=C2\CC(C(C)(C)C)C/C(=C\c3cc(OC)c(OC)c(OC)c3)C2=O)cc(OC)c1OC (stereo not given) |  | active: 2.51 µM
35 | COc1ccc(-c2oc(=O)c3cc(OC)c(OC)cc3c2C#CCCO)cc1 |  | active: 3.16 µM
36 | Cn1cc(P(=S)(N2CCOCC2)N2CCOCC2)cc1P(=O)(N1CCOCC1)N1CCOCC1 | inactive: 1.5% | 
37 | CN(C(=O)c1cccnc1)c1nnc(-c2cccnc2)s1 | inactive: -0.984% | 
38 | CCN(CC)S(=O)(=O)c1ccc(C(=O)NCCc2ccccn2)cc1 |  | inconclusive [inhibitor, single point]
39 | COc1cccc(N2CCN(c3ncnc4c3[nH]c3ccc(F)cc34)CC2C)c1 (stereo not given) |  | active: 1.58 µM
40 | Cc1ccc(Cl)c(OCC(=O)Nc2ccc3c(c2)OCCO3)c1 |  | active: 10 µM
41 | CCC(c1nnnn1C1CCCC1)N(Cc1cccs1)Cc1cc2cccc(C)c2[nH]c1=O (stereo not given) |  | inconclusive [inhibitor, single point]
42 | Cc1ccc(CCN2CC(C(=O)NCCCN3CCC(C)CC3)CC2=O)cc1 (stereo not given) | inactive: 10.6% | 
43 | Cc1cc(-c2csc(N)n2)c(C)n1Cc1ccccc1 |  | inconclusive [inhibitor, single point]
44 | COc1ccc(C(=O)Nc2nc3cc(OC)c(OC)cc3c(=O)[nH]2)cc1 |  | inconclusive [inhibitor, single point]
45 | Cc1cc(Cl)n2ncc(-c3ccccc3)c2n1 |  | inconclusive [inhibitor, single point]
46 | COc1cc(N=c2c([N+](=O)[O-])nn(-c3ccc4c(c3)OCCO4)n2O)cc(OC)c1 |  | inconclusive [inhibitor, partial curve]
47 | CCOC(=O)c1cc(C)sc1NC(=O)CN1CCN(C(=O)C2CCCO2)CC1 (stereo not given) |  | inconclusive [inhibitor, partial curve]
48 | COc1cc(CNc2cc(C)ccc2C)cc(OC)c1OC | inactive: -16.2% | 
49 | CC(C)Nc1oc(Cc2cccc3ccccc23)nc1C#N |  | inconclusive [inhibitor, partial curve]
50 | Cc1ccc(N=Cc2c(O)c3ccccc3oc2=O)cc1F | inactive: 10.8% | 

Row | Compound | activity change, negative = inhibition | Potency
51 | Cc1c(C(=O)OCC(=O)Nc2ccc(N3CCOCC3)cc2)oc2ccccc12 | inactive: -13.9% | 
52 | O=C(Nc1cccc(Cl)c1)c1ccncc1 | inactive: -0.558% | 
53 | COc1ccc(Cl)cc1NC(=O)CC(C)c1ccccc1 (stereo not given) |  | active: 8.91 µM
54 | COc1ccc(C2Nc3ccccc3C(=O)N2c2ccccc2)cc1COc1ccccn1 (stereo not given) | inactive: -9.2% | 
55 | O=[N+]([O-])C(/C=C(/Cl)[N+](=O)[O-])=C(N1CCCCC1)N1CCCCC1 | inactive: 17.2% | 
56 | Cc1[nH]c2ccccc2c1/C=N/Nc1ccccc1[N+](=O)[O-] |  | inconclusive [inhibitor, single point]
57 | c1ccc(-c2nnc(-c3ccccn3)nc2NC2CCCCC2)cc1 |  | active: 1.58 µM
58 | COC(=O)C1=C(C)NC(=O)NC1c1ccc(OCC(=O)N2CCCCC2)cc1 (stereo not given) | inactive: 21.6% | 
59 | COc1ccc2ccccc2c1CNCc1ccc(C)cc1 |  | inconclusive [inhibitor, single point]
60 | O=C(NCCNc1ccc([N+](=O)[O-])cc1)c1ccco1 | inactive: 7.04% | 
61 | CN(C)c1cc(-c2ccccc2)nc(N)n1 |  | inconclusive [inhibitor, single point]
62 | Cc1ccc2c(c1)sc(-c1ccc(N(C)C)cc1)[n+]2C |  | active: 3.55 µM
63 | CC1(C)CC2CC(C)(CN2S(=O)(=O)c2ccc(C(=O)Nc3ccc(S(=O)(=O)N4CCOCC4)cc3)cc2)C1 (stereo not given) |  | inconclusive [inhibitor, full curve]
64 | CC1=Nc2cc(C(=O)N3CCCCC3)ccc2Sc2ccc(C)cc21 | inactive: -1.48% | 
65 | O=C(NCCc1ccc2c(c1)OCCO2)c1ccc([N+](=O)[O-])cc1Cl |  | inconclusive [inhibitor, full curve]
66 | O=CC1=C(N2CCOCC2)/C(=C\c2ccccc2)CC1 | inactive: -23.2% | 
67 | Cc1ccc(N=C2SC(C(=O)O)CC(=O)N2C)cc1C (stereo not given) | inactive: 8.71% | 
68 | O=S(=O)(c1ccc(Oc2ccc(Br)cc2)cc1)N1CCOCC1 |  | inconclusive [inhibitor, partial curve]
69 | Cc1c(/C=N/n2cnnc2)c2ccccc2n1CCOc1ccccc1 |  | inconclusive [inhibitor, full curve]
70 | O=S(=O)(Nc1nc2ccccc2nc1Cl)c1ccc(Br)cc1 | inactive: -8.01% | 
71 | COCCN(CCOC)c1nc(S(=O)(=O)c2ccc(C)cc2)c(Cl)s1 |  | inconclusive [inhibitor, single point]
72 | O=C(Nc1ccc(Cl)cc1C(F)(F)F)C(Sc1nnc(-c2cccs2)o1)c1ccccc1 (stereo not given) |  | inconclusive [inhibitor, single point]
73 | COC(=O)c1ccc(NC(=O)Nc2ccc(F)cc2F)cc1 |  | active: 11.2 µM
74 | CC#C[C@]1(O)CC[C@H]2[C@@H]3CCC4=CC(=O)CCC4=C3[C@@H](c3ccc(N(C)C)cc3)C[C@@]21C |  | active: 35.5 µM
75 | COc1ccc(C(=O)COC(=O)c2sccc2C)cc1OC |  | inconclusive [inhibitor, single point]
